The list shows a part of the results. Cut-off read from the data, not from the text of the source: active = 25% or less and inactive = the rest. Many values rest on one well or one pass, so single values are uncertain.
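Note: compounds tested were the hits of an earlier 50 µM broth growth screen of a drug-like diversity library run with polymyxin B.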

For the experiment, the system named is Salmonella enterica serovar Typhimurium SL1344. Briefly: intramacrophage bacterial GFP load (SAFIRE), percent of DMSO control (% of DMSO); higher = more intracellular bacteria (less inhibition). The note with it: 25 µM; system: infected RAW 264.7 macrophages. The method, then: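 Secondary screen of the 553 primary hits at 25 µM. (i) S. Typhimurium SL1344 grown in Mueller-Hinton broth with 0.5 µg/mL polymyxin B, OD600 read after 18 h. (ii) SAFIRE assay: RAW 264.7 macrophages infected with S. Typhimurium sifB::gfp (MOI 30); compound added 2 h post-infection; cells fixed at 18 h; GFP-positive pixel fraction per macrophage imaged by confocal microscopy and expressed as % of DMSO control.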
With `O=S(=O)(c1ccccc1Cl)N1CCCC(CO)(Cc2cccc(Cl)c2)C1` (configuration not stated), the “intramacrophage bacterial GFP load” value is inactive: 76.2.

With `CCOC(=O)C1(Cc2ccc(F)cc2)CCCN(C(=O)c2cc3ccccc3cn2)C1` (configuration not stated), the “intramacrophage bacterial GFP load” value was inactive: 57.2. As for `COCCCN1C(=O)CC(CC(=O)N2CCC(Cc3ccccc3)CC2)(c2ccccc2OC)C1=O` (configuration not stated), the “intramacrophage bacterial GFP load” value is inactive: 58.6. In the case of `COc1ccccc1CNC(=O)c1coc(COc2ccc(F)cc2)n1`, the “intramacrophage bacterial GFP load” value was inactive: 179. Regarding `O=C(NCC1CC2C=CC1C21CC1)c1cc(Cc2ccc(F)cc2)no1` (configuration not stated), the “intramacrophage bacterial GFP load” value is inactive: 101. For the compound `COCC1CCN(C(=O)CC(c2ccccc2)c2cccc(Cl)c2)CC1` (configuration not stated), the “intramacrophage bacterial GFP load” value is inactive: 67.7.

For `O=C(c1cccc2ccccc12)C1CCCN(C(=O)c2ccc3c(c2)OCO3)C1` (configuration not stated), the “intramacrophage bacterial GFP load” value is inactive: 114.

`COCCCN1C(=O)CC(CC(=O)N2CC3(C)CC2CC(C)(C)C3)(c2ccccc2Cl)C1=O` (configuration not stated): the “intramacrophage bacterial GFP load” value is inactive: 45.8. The figure for `O=C(CCC(F)(F)F)N1CCc2onc(-c3cccc4ccccc34)c2C1` is inactive: 196; for `CC(COc1ccccc1)N1CCc2onc(-c3ccc4c(c3)OCO4)c2C1` (configuration not stated) it is inactive: 60.1. As for `O=C(CCCc1cccs1)N1CCOc2ccc(C(O)C(c3ccccc3)c3ccccc3)cc2C1` (configuration not stated), the “intramacrophage bacterial GFP load” value is inactive: 60.7. Turning to `O=C(Nc1ccc(Oc2cccnc2)cc1)C1CCN(Cc2cccc(Cl)c2)CC1`, the “intramacrophage bacterial GFP load” value is active: 1.67.

(Values after the supplement of paper PMC12889115.)
